# The supplement of paper PMC4466236
# Over roughly 33,000 sequences, “E-score (dimensionless, -0.5 to 0.5)” has its median near -0.058; the highest 2% begin near 0.35. This is one part of the list.
# Tested on: MvaT
# Assay: PBM 8-mer E-score (mean of HK and ME arrays) (E-score (dimensionless, -0.5 to 0.5)); higher = stronger relative binding preference; most listed sequences are background and not binding sites
# Summary of the method: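 Reported values are rank-based E-scores, taken as the mean of two universal arrays and parsed with a custom script. Each 8-mer score falls between -0.5 and 0.5. The arrays, ME and HK, were double-stranded 60-mers with a constant 25-mer primer region and a variable 35-mer region covering all 8-mers. They were probed, by an earlier protocol, with full-length P. aeruginosa MvaT carrying an N-terminal glutathione S-transferase fusion.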
row,Sequence,PBM 8-mer E-score
1,AAGTAAGA,0.247
2,AAGGCACG,-0.189
3,ATGATTTC,0.0574
4,ATCCTGGA,0.0568
5,GGTCCATA,-0.0468
6,CCCCCAGG,-0.337
7,GTGAAACA,0.218
8,GTAGCGAC,-0.12
9,GCATTGAA,0.098
10,CGTAAAAC,0.0493
11,CGACATTA,0.185
12,GTAGCCTA,-0.0873
13,ACTCTGAC,-0.0817
14,AGCCAGAC,-0.0924
15,GGCCTAGA,-0.27
16,AGGTAGTC,-0.145
17,GCCGACCA,-0.0641
18,CATAGGGG,-0.18
19,GGACGCCA,-0.112
20,CGAGCCGC,-0.302
21,ATCCTAAC,0.093
22,AGGTAAGG,-0.193
23,AGACTACT,0.172
24,ACAAATGA,0.115
25,AACATGGT,-0.0293

row,Sequence,PBM 8-mer E-score
1,GGAGCTAA,-0.146
2,GATAGGCA,-0.0519
3,CAAACTCC,-0.0931
4,TGAGCTAA,-0.0684
5,AGAGACAA,-0.0697
6,AGGATTAA,0.118
7,CGCGTGAA,0.0803
8,ATGGTCAG,-0.138
9,GAACTGGA,-0.161
10,TATGAAAA,0.282
11,TACCGAAA,0.0367
12,TACACAGA,0.104
13,CCTTACAC,0.0641
14,AACAAGCG,0.0541
15,ATGCTTAG,-0.000164
16,AAGAAGCT,-0.0873
17,CTTAGCGA,-0.029
18,GCGTTGCC,-0.179
19,CAATGTCG,-0.08
20,AATGAGTC,-0.048
21,GACCATTA,0.175
22,ACTTACAC,0.232
23,AGCGCCTG,-0.312
24,AAGCTCGG,-0.135
25,AGAGATTG,0.084

row,Sequence,PBM 8-mer E-score
1,AGAGCTGA,-0.211
2,AGGCGGAG,-0.293
3,AGTCGGCA,-0.183
4,GCGCAGCC,-0.277
5,ATTGTTCC,0.0877
6,CCGTCTTA,-0.0266
7,AATGAAGC,0.0469
8,CCCTGTCC,-0.196
9,GACTTGAC,-0.147
10,CAGCAAGA,-0.03
11,CGCCATTA,0.175
12,CTGCAAAC,0.091
13,GCGGCAAA,0.0964
14,AATCCCCC,-0.126
15,ATGTAATC,0.223
16,AATCGCTG,-0.0494
17,CGAATGTA,0.177
18,TAGGAAAA,0.015
19,CTCCTAAA,-0.112
20,CAATATTA,0.373
21,ACCGCTTA,-0.0206
22,ACTTTCCG,0.119
23,AGCAATAC,0.201
24,ATCAATTA,0.319
25,TGTGTGAA,0.00419

row,Sequence,PBM 8-mer E-score
1,ACCTTGGG,-0.221
2,AGGTGGCG,-0.0518
3,AATGTAGT,0.177
4,ACTTGAGA,0.0639
5,TCTACAAA,0.00942
6,AATCTTAT,0.188
7,AACATGTA,0.347
8,GTTTTCGA,0.086
9,AAAGTTCC,0.226
10,CACAAATC,0.0941
11,CATTGGTC,-0.0818
12,AACGAAAG,0.224
13,GGGGTGGA,-0.243
14,AGTTTATG,0.304
15,GAGCCGGC,-0.205
16,TCATGAAA,0.108
17,CGTGAGCC,-0.287
18,CACCTCTC,-0.205
19,CTAAGATA,0.281
20,CAGTTCGG,-0.119
21,ATGTGTCG,0.0669
22,CACTTACA,0.212
23,CCCTATCC,-0.293
24,AAAGAAAT,0.164
25,GCTGTCGA,-0.0706

row,Sequence,PBM 8-mer E-score
1,AAAAAGCG,0.183
2,ACCGACAA,0.062
3,GGGGCTCA,-0.347
4,AATTTCAT,0.264
5,CGGGACCA,-0.154
6,ATTCCCCG,-0.0407
7,CATTTGAG,0.117
8,CACTGCTG,-0.115
9,CTGAGTGA,-0.0531
10,AGTAGATC,-0.194
11,CAACAGTA,0.11
12,AATATTCA,0.312
13,AAGTCCCA,-0.0242
14,AGACTTTC,0.0416
15,CTATCTCA,-0.0182
16,AAACCCCC,-0.301
17,ACATAATC,0.222
18,AGAGGAAT,0.0381
19,GATGCGTA,-0.153
20,CAGTTCTC,-0.151
21,CAAGCTTG,-0.234
22,ATGCCCTG,-0.132
23,ACCTTCTG,-0.062
24,GAGTTCCC,-0.16
25,AGAGTATA,0.306

row,Sequence,PBM 8-mer E-score
1,ATGAGCCG,-0.153
2,CGCCCGTC,-0.284
3,AATACGGG,-0.0239
4,ACAGCGCC,-0.206
5,AAGACCTA,-0.0822
6,ACAGGTCA,-0.207
7,CTCGGGTA,-0.000585
8,GCGCCGCC,-0.337
9,ATTCTACG,0.00631
10,GTAAGGTA,0.0644
11,GTGTACTA,0.0241
12,GTCGGAAA,0.0251
13,CGCGCTCC,-0.246
14,AACTCCGG,-0.146
15,GAGTGCTA,0.0515
16,ATCTATAG,0.146
17,CTGATCCA,-0.212
18,ACATCAAG,-0.0717
19,ATCGCTAC,-0.16
20,ACGGTATG,-0.214
21,AGTTACCG,0.0173
22,TGAACCAA,-0.0692
23,AAATCAAA,0.209
24,AGTTTGTC,0.0701
25,CATATTCG,0.173

row,Sequence,PBM 8-mer E-score
1,GTAGACAA,-0.118
2,GCGTATAA,0.201
3,TCGAACAA,0.0746
4,CGTGGGAC,-0.175
5,CTGGCTCA,-0.136
6,AATATAGG,0.288
7,CTCCACGA,-0.0888
8,GAATTGAC,0.0491
9,ATGCCTTG,-0.0691
10,CCAGGGCG,-0.142
11,ACATCTGG,-0.118
12,GAAGGAGC,-0.315
13,GCCCCACA,-0.169
14,AAAGAGCG,-0.0407
15,AACAAGCC,0.0697
16,GCTATTCC,0.0729
17,CGTCCTTA,-0.0548
18,GCGGGTCC,-0.104
19,GACAATAA,0.28
20,CTAGTAAC,0.212
21,CGACACTC,-0.0968
22,ATCCTCCG,-0.29
23,ATCGTCGC,-0.131
24,CAGCGCGG,-0.245
25,CCTACGAA,-0.128

row,Sequence,PBM 8-mer E-score
1,GAAGGTCA,-0.173
2,CCGTTCAC,-0.213
3,CGACGGAG,-0.115
4,ATTGATGG,-0.0185
5,CACCGGTG,-0.153
6,CGCATCGC,-0.172
7,GAATCTCC,-0.16
8,CCCTTCTC,-0.102
9,CTTGTGTA,-0.0771
10,CCGAAAGA,-0.02
11,ACCTCCTC,-0.275
12,ATTCTTGG,-0.105
13,ATTAAACC,0.249
14,CGGACGAA,-0.178
15,ACGGGCCC,-0.183
16,GGACTTGA,0.00781
17,GGCCCACC,-0.28
18,AGACCCCT,-0.228
19,ATCAATGA,0.163
20,GAGGGGAA,-0.241
21,ACGTACTA,0.176
22,CGATTCTC,-0.121
23,GCGCTCCA,-0.228
24,GACCCGCA,-0.00755
25,CCTACTCC,-0.175

row,Sequence,PBM 8-mer E-score
1,AACATCCG,0.129
2,GTTGCTTA,0.0313
3,AACTTTGC,0.294
4,CGAGTTTA,0.203
5,CCACTTTA,0.00646
6,CCAAATTA,0.228
7,AAACCGAA,0.174
8,CCCTAACG,-0.235
9,GCGTGTTA,0.117
10,CAATGACC,-0.149
11,GCGTGATA,0.133
12,CACTAAGG,-0.0742
13,ACACATAT,0.344
14,CTGAGGTA,-0.165
15,ACTTCATA,0.164
16,ACAGTGCA,-0.0545
17,CACGGATA,0.0195
18,AAAGTGCC,-0.0197
19,CATTGTTC,0.143
20,GCTATTGA,0.0714
21,AATAGCCG,-0.00324
22,ACGGTAGA,-0.116
23,AGACAACG,-0.133
24,CGGATGAG,-0.197
25,AAAAGAGA,0.103

row,Sequence,PBM 8-mer E-score
1,AATTATAC,0.342
2,ACCCATCG,-0.107
3,CCTACACA,-0.133
4,ATGCCGGG,-0.178
5,TCAGCTGA,0.0734
6,ACTTTGCG,0.206
7,ATGAGCAG,-0.136
8,ACCATCCG,-0.225
9,CCCAACCG,0.0334
10,AGGATTGG,-0.158
11,AACCGCTC,-0.22
12,AGAGATCG,-0.116
13,AGAAGCAA,0.00903
14,CACAAGTA,0.214
15,AATCCACT,-0.0779
16,GCCTCGCA,-0.204
17,CATGTAAG,0.0769
18,CTAAGGCC,-0.149
19,ACGTGTCT,0.0166
20,CCGAGGAA,-0.143
21,ACTGCAAG,-0.0835
22,CTGCCAGC,-0.251
23,CCAGAGTA,-0.115
24,GGAGAGTA,-0.0478
25,CACTTATA,0.326

row,Sequence,PBM 8-mer E-score
1,TCTTAGAA,0.168
2,ACCATCGC,-0.242
3,ACTTTTGA,0.134
4,CGACTTCA,-0.13
5,ACACACTG,-0.146
6,ACAATACG,0.0961
7,GCCTTTAC,-0.0615
8,AATACACT,0.137
9,GGTATTGA,0.129
10,CTTGCCAC,-0.122
11,GTTGGGCA,-0.0983
12,AGTGCTTA,0.057
13,AGTGGGCC,-0.226
14,GGTCTATA,-0.039
15,CTCCTATC,-0.119
16,ATGCGGGA,-0.182
17,ATTTTAAA,0.383
18,GTGTAAAA,0.129
19,AAGTAGGT,0.0927
20,CCGGGGGC,-0.284
21,ACAGAGCT,-0.177
22,CCGTATAA,0.125
23,CAGTCAGA,-0.127
24,TACCTTAA,0.236
25,ACGTTTTA,0.211

row,Sequence,PBM 8-mer E-score
1,GACTATAC,0.151
2,CACCCCAA,-0.081
3,CCCGTTTA,0.0119
4,ACAAATAG,0.268
5,AAATCGTT,0.126
6,CCCTGCCA,-0.157
7,CCAGGCAG,-0.282
8,CGGTCGAA,-0.142
9,GCATTAGC,-0.0717
10,CAGTCTGA,-0.00904
11,GGACCTCC,-0.299
12,ATTCTCCC,-0.0642
13,GAGAAATA,0.334
14,AATAAGGC,0.301
15,ATCCAGAA,0.0751
16,GGGTACCA,-0.266
17,ATCGCCTA,-0.119
18,ACAGAGTA,0.045
19,ATTAAGAA,0.282
20,CGGATTGC,-0.109
21,CACTTCAC,0.154
22,AGCGCAAC,0.076
23,TCAAACAA,0.175
24,ATGTTCTG,0.0527
25,CCATTCCG,-0.17

row,Sequence,PBM 8-mer E-score
1,AAGTCAAG,-0.0341
2,CTTTGAAC,0.0886
3,ACAAGGCC,-0.125
4,AGCTGGAT,-0.0794
5,CTTATACA,0.229
6,CTGATTTA,0.228
7,CTCAAATA,0.251
8,GGTAAGAC,0.00204
9,GAGTGTAC,-0.0425
10,GTAGCACA,0.0725
11,ACCAATCC,-0.00343
12,AAACTGGT,-0.00279
13,CCTTGAAC,-0.19
14,GACACTGA,-0.19
15,GGGGTTAA,0.068
16,CGGACGGA,-0.207
17,AGAGACAT,0.0513
18,AGTGACGA,-0.182
19,AGAGTTTA,0.188
20,CACGTCCG,-0.232
21,GATCATCC,-0.141
22,ACAATTAG,0.315
23,CCCGCACC,-0.236
24,AACCGGAT,0.0184
25,ATGTTCCG,0.0172

row,Sequence,PBM 8-mer E-score
1,ATCACGCG,-0.0746
2,AAGGGCCC,-0.316
3,AAAAGGTG,-0.12
4,ATACTAGG,0.104
5,CCCAATCG,-0.244
6,ACCAGCGT,-0.258
7,CACAAGCA,0.0126
8,GGGCAACA,0.076
9,GATGATAA,0.132
10,ATTCAAGG,-0.0546
11,AACTGAGA,-0.0526
12,CCCCCGAG,-0.207
13,AGGCCCGG,-0.282
14,AGAAGTTA,0.279
15,AGCGTACA,-0.0425
16,ATCATGGG,-0.198
17,ACTGCGTC,-0.216
18,ATCGTCGG,-0.078
19,ACTCGTTC,-0.131
